# Results from the supplement of paper PMC8728848.
# The list shows a part of the results.
# How the values were obtained:
# Experiment in all cases: glycan array binding signal (z-score within array); higher = stronger binding
# Details in all cases: glycan notation: IUPAC condensed, linker removed
# [1] = target: GlcNAc(b1-3)Gal(b1-4)GlcNAc(b1-3)Gal(b1-4)GlcNAc
# In short: (§1)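 Columns mapping to the same glycan were averaged after glycan names were converted to IUPAC-condensed notation. The data come from 3228 arrays in the Consortium for Functional Glycomics database, limited to those with an available protein sequence. Binding is reported as a within-array Z-score averaged across arrays of one protein sequence and across linkers.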
# [2] = target: GlcNAc(b1-3)GalNAc
# In short: as §1
# [3] = target: GlcNAc(b1-3)Man
# In short: as §1
# [4] = target: GlcNAc(b1-3)[GlcNAc(b1-4)][GlcNAc(b1-6)]GlcNAc
# In short: as §1
# [5] = target: GlcNAc(b1-3)[GlcNAc(b1-6)]Gal(b1-4)GlcNAc
# In short: as §1
# [6] = target: GlcNAc(b1-3)[GlcNAc(b1-6)]GalNAc
# In short: as §1
# [7] = target: GlcNAc(b1-4)Gal(b1-4)GlcNAc
# In short: as §1
# [8] = target: GlcNAc(b1-4)GlcNAc
# In short: as §1
# [9] = target: GlcNAc(b1-4)GlcNAc(b1-4)GlcNAc
# In short: as §1
# [10] = target: GlcNAc(b1-4)GlcNAc(b1-4)GlcNAc(b1-4)GlcNAc(b1-4)GlcNAc
# In short: as §1
# [11] = target: GlcNAc(b1-4)GlcNAc(b1-4)GlcNAc(b1-4)GlcNAc(b1-4)GlcNAc(b1-4)GlcNAc
# In short: as §1
# [12] = target: GlcNAc(b1-4)[GlcNAc(b1-6)]GalNAc
# In short: as §1
# [13] = target: GlcNAc(b1-6)Gal(b1-4)GlcNAc
# In short: as §1
# [14] = target: GlcNAc(b1-6)GalNAc
# In short: as §1
# [15] = target: GlcNAc3Prop(b1-4)GlcNAc
# In short: as §1
# [16] = target: GlcNAc6S(b1-3)Gal(b1-4)GlcNAc
# In short: as §1
# [17] = target: Kdn(a2-3)Gal(b1-3)GalNAc
# In short: as §1
# [18] = target: Kdn(a2-3)Gal(b1-3)GlcNAc
# In short: as §1
# [19] = target: Kdn(a2-3)Gal(b1-4)Glc
# In short: as §1
# [20] = target: Kdn(a2-3)Gal(b1-4)GlcNAc
# In short: as §1
# [21] = target: Kdn(a2-3)Gal(b1-4)[Fuc(a1-3)]GlcNAc
# In short: as §1
# [22] = target: Kdn(a2-6)Gal(b1-4)GlcNAc
# In short: as §1
# [23] = target: Man(a1-2)Man(a1-2)Man(a1-3)Man
# In short: as §1
# [24] = target: Man(a1-2)Man(a1-2)Man(a1-6)[Man(a1-3)]Man
# In short: as §1
# [25] = target: Man(a1-2)Man(a1-3)Man
# In short: as §1
# [26] = target: Man(a1-2)Man(a1-3)[Man(a1-2)Man(a1-6)]Man
# In short: as §1
# [27] = target: Man(a1-2)Man(a1-3)[Man(a1-2)Man(a1-6)]Man(a1-6)[Man(a1-2)Man(a1-2)Man(a1-3)]Man
# In short: as §1
# [28] = target: Man(a1-2)Man(a1-3)[Man(a1-2)Man(a1-6)]Man(a1-6)[Man(a1-2)Man(a1-2)Man(a1-3)]Man(b1-4)GlcNAc(b1-4)GlcNAc
# In short: as §1
# [29] = target: Man(a1-2)Man(a1-3)[Man(a1-6)]Man(a1-6)[Man(a1-2)Man(a1-3)]Man(b1-4)GlcNAc(b1-4)GlcNAc
# In short: as §1
# [30] = target: Man(a1-2)Man(a1-6)[Man(a1-3)]Man(a1-6)[Man(a1-2)Man(a1-2)Man(a1-3)]Man
# In short: as §1
# [31] = target: Man(a1-2)Man(a1-6)[Man(a1-3)]Man(a1-6)[Man(a1-2)Man(a1-2)Man(a1-3)]Man(b1-4)GlcNAc(b1-4)GlcNAc
# In short: as §1
# [32] = target: Man(a1-3)[Man(a1-6)]Man
# In short: as §1
# [33] = target: Man(a1-3)[Man(a1-6)]Man(a1-6)[Man(a1-2)Man(a1-3)]Man(b1-4)GlcNAc(b1-4)GlcNAc
# In short: as §1
# [34] = target: Man(a1-3)[Man(a1-6)]Man(a1-6)[Man(a1-3)]Man
# In short: as §1
# [35] = target: Man(a1-3)[Man(a1-6)]Man(a1-6)[Man(a1-3)]Man(b1-4)GlcNAc(b1-4)GlcNAc
# In short: as §1
# [36] = target: Man(a1-3)[Man(a1-6)]Man(b1-4)GlcNAc(b1-4)GlcNAc
# In short: as §1
# [37] = target: Man(a1-6)Man
# In short: as §1
binder,measurement,setting,value
"Gal 3 (Homo sapiens), P17931 (protein) MADNFSLHDALSGSGNPNPQGWPGAWGNQPAGAGGYPGASYPGAYPGQAPPGAYPGQAPPGAYHGAPGAYPGAPAPGVYPGPPSGPGAYPSSGQPSAPGAYPATGPYGAPAGPLIVPYNLPLPGGVVPRMLITILGTVKPNANILDFQRGNDVAFHFNPRFNENNRRVIVCNTKLDNNWGREERQSVFPFESGKPFKIQVLVEPDHFKVAVNDAHLLQYNHRVKKLNEISKLGISGDIDLTSASYTMI",glycan array binding signal (z-score),[1],3.49
same,glycan array binding signal (z-score),[2],-0.391
same,glycan array binding signal (z-score),[3],-0.391
same,glycan array binding signal (z-score),[4],-0.362
same,glycan array binding signal (z-score),[5],-0.39
same,glycan array binding signal (z-score),[6],-0.391
same,glycan array binding signal (z-score),[7],-0.377
same,glycan array binding signal (z-score),[8],-0.386
same,glycan array binding signal (z-score),[9],-0.389
same,glycan array binding signal (z-score),[10],-0.379
same,glycan array binding signal (z-score),[11],-0.391
same,glycan array binding signal (z-score),[12],-0.371
same,glycan array binding signal (z-score),[13],-0.389
same,glycan array binding signal (z-score),[14],-0.391
same,glycan array binding signal (z-score),[15],-0.386
same,glycan array binding signal (z-score),[16],-0.39
same,glycan array binding signal (z-score),[17],-0.39
same,glycan array binding signal (z-score),[18],-0.389
same,glycan array binding signal (z-score),[19],-0.391
same,glycan array binding signal (z-score),[20],-0.386
same,glycan array binding signal (z-score),[21],-0.385
same,glycan array binding signal (z-score),[22],-0.39
same,glycan array binding signal (z-score),[23],-0.389
same,glycan array binding signal (z-score),[24],-0.389
same,glycan array binding signal (z-score),[25],-0.391
same,glycan array binding signal (z-score),[26],-0.391
same,glycan array binding signal (z-score),[27],-0.389
same,glycan array binding signal (z-score),[28],-0.391
same,glycan array binding signal (z-score),[29],-0.389
same,glycan array binding signal (z-score),[30],-0.379
same,glycan array binding signal (z-score),[31],-0.381
same,glycan array binding signal (z-score),[32],-0.384
same,glycan array binding signal (z-score),[33],-0.388
same,glycan array binding signal (z-score),[34],-0.384
same,glycan array binding signal (z-score),[35],-0.386
same,glycan array binding signal (z-score),[36],-0.392
same,glycan array binding signal (z-score),[37],-0.381
